Assay [1] deals with RAW-Dual. As to the kind of experiment: IRF Lucia reporter activity, fold change vs agonist alone; higher = enhanced IRF activity. The following applies: library stock concentration (final ~1000-fold dilution): 10 mM, agonist: MPLA (TLR4) […]. The method in brief:
(§1)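 Cytotoxic wells were those whose IncuCyte confluency was below 70% of agonist controls in both mask sets. The cells were RAW-Dual macrophages at 50,000 cells/well in DMEM on 384-well plates, dosed with 50 nL of library stock by pin tool, stimulated with a PRR agonist 1 h later, and kept at 37 °C, 5% CO2 for 20 hours. IRF and NF-κB reporter activity, as fold change over agonist-alone wells, came from supernatant read by QuantiLuc luminescence and QuantiBlue absorbance, respectively.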

The test system of assay [2] is RAW-Dual. In words: IRF Lucia reporter activity, fold change vs agonist alone; cytotoxicity flag (confluency mask): not cytotoxic; higher = enhanced IRF activity. The method in brief: as §1
Assay [3] deals with RAW-Dual. As to the kind of experiment: IRF Lucia reporter activity, fold change vs agonist alone; cytotoxicity flag (confluency mask): cytotoxic (confluency <70% of control); higher = enhanced IRF activity. The method in brief:
as §1

[4] abbreviates: cytotoxicity flag (confluency mask): not cytotoxic.
The mark [5] stands for this setting: agonist: 3'3'-cGAMP (STING) 10 ug/mL.
[6] abbreviates: cytotoxicity flag (confluency mask): cytotoxic (confluency <70% of control).

The values below come from the supplement of paper PMC10037445.

The full ranking holds about 2,900 compounds; the median of “IRF Lucia reporter activity, fold change vs agonist alone” is about 0.9, and the highest 2% start at about 2.8. This is one part of the list.

Consider `CN(C)c1ncnc2nc[nH]c12`, for which the “IRF Lucia reporter activity” value in the assay with RAW-Dual [1] (setting [4]) is 0.883.

Turning to `CN(C)c1ncnc2nc[nH]c12` (library stock concentration (final ~1000-fold dilution): 10 mM), the “IRF Lucia reporter activity” value with RAW-Dual [2] (setting [5]) amounted to 0.82; in the assay with RAW-Dual [2] (agonist: LPS (TLR4) 0.1 ug/mL), 0.533.

`Fc1ccc2c(/C=C/c3nnn[nH]3)c[nH]c2c1` (library stock concentration (final ~1000-fold dilution): 10 mM): the “IRF Lucia reporter activity” value came out at 1.02 in the assay on RAW-Dual [2] (setting [5]) and 1.25 in the assay with RAW-Dual [2] (agonist: LPS (TLR4) 0.1 ug/mL).

For `CCCc1nc(C)c2c(=O)[nH]c(-c3cc(S(=O)(=O)N4CCN(CC)CC4)ccc3OCC)nn12.Cl.O.O.O` (library stock concentration (final ~1000-fold dilution): 10 mM), the “IRF Lucia reporter activity” value with RAW-Dual [2] (setting [5]) turned out to be 0.839; with RAW-Dual [2] (agonist: LPS (TLR4) 0.1 ug/mL), 0.967.

In the case of `CCCc1nc(C)c2c(=O)[nH]c(-c3cc(S(=O)(=O)N4CCN(CC)CC4)ccc3OCC)nn12.Cl.O.O.O`, the “IRF Lucia reporter activity” value in the assay on RAW-Dual [1] (setting [4]) was found to be 0.917.

Regarding `Cn1cc(/C=C/C(=O)c2cccc(F)c2)cc1/C=C/C(=O)NO` (library stock concentration (final ~1000-fold dilution): 10 mM), the “IRF Lucia reporter activity” value with RAW-Dual [2] (setting [5]) was 0.0742; in the assay on RAW-Dual [2] (agonist: LPS (TLR4) 0.1 ug/mL) it was 0.992.

On to `Cn1cc(/C=C/C(=O)c2cccc(F)c2)cc1/C=C/C(=O)NO`, for which the “IRF Lucia reporter activity” value in the assay with RAW-Dual [1] (setting [4]) was 0.49.

Turning to `Cc1nc(N(C)C(=O)Cc2ccc(-c3ccccn3)cc2)sc1S(N)(=O)=O`, the “IRF Lucia reporter activity” value in the assay with RAW-Dual [1] (setting [4]) stood at 0.705.

Regarding `Cc1nc(N(C)C(=O)Cc2ccc(-c3ccccn3)cc2)sc1S(N)(=O)=O` (library stock concentration (final ~1000-fold dilution): 10 mM), the figures for the “IRF Lucia reporter activity” value in the assay with RAW-Dual [2] (setting [5]) and in the assay on RAW-Dual [2] (agonist: LPS (TLR4) 0.1 ug/mL) were 0.513 and 0.902, respectively.

Consider `CC(COc1ccccc1)N(CCCl)Cc1ccccc1.Cl` (stereo not given), for which the “IRF Lucia reporter activity” value in the assay on RAW-Dual [1] (setting [4]) was 1.07.

In the case of `CC(COc1ccccc1)N(CCCl)Cc1ccccc1.Cl` (stereo not given) (library stock concentration (final ~1000-fold dilution): 10 mM), the “IRF Lucia reporter activity” value is 1.02 in the assay on RAW-Dual [2] (setting [5]) and 0.0348 with RAW-Dual [2] (agonist: LPS (TLR4) 0.1 ug/mL).

`COc1nc(C)cnc1NS(=O)(=O)c1cccnc1-c1ccc(-c2nnco2)cc1`: the “IRF Lucia reporter activity” value with RAW-Dual [1] (setting [4]) was determined as 0.842.

Consider `COc1nc(C)cnc1NS(=O)(=O)c1cccnc1-c1ccc(-c2nnco2)cc1` (library stock concentration (final ~1000-fold dilution): 10 mM), for which the “IRF Lucia reporter activity” value worked out at 1.07 with RAW-Dual [2] (setting [5]) and 0.998 in the assay on RAW-Dual [2] (agonist: LPS (TLR4) 0.1 ug/mL).

Take `O=C(Nc1ccc(OC(F)(F)Cl)cc1)c1cnc(N2CCC(O)C2)c(-c2ccn[nH]2)c1` (stereo not given) (library stock concentration (final ~1000-fold dilution): 10 mM): the “IRF Lucia reporter activity” value in the assay with RAW-Dual [2] (setting [5]) was 0.296; in the assay on RAW-Dual [2] (agonist: LPS (TLR4) 0.1 ug/mL), 1.27.

As to `C/C(O)=C(\C#N)C(=O)Nc1ccc(C(F)(F)F)cc1`, in the assay on RAW-Dual [1] (setting [4]), the “IRF Lucia reporter activity” value amounted to 1.97.

With `C/C(O)=C(\C#N)C(=O)Nc1ccc(C(F)(F)F)cc1` (library stock concentration (final ~1000-fold dilution): 10 mM), the “IRF Lucia reporter activity” value with RAW-Dual [2] (setting [5]) was determined as 1.69; in the assay on RAW-Dual [2] (agonist: LPS (TLR4) 0.1 ug/mL), 3.04.

As for `Cc1cc(Nc2ncc(Cl)c(Nc3ccccc3S(=O)(=O)C(C)C)n2)c(OC(C)C)cc1C1CCNCC1` (library stock concentration (final ~1000-fold dilution): 10 mM), the “IRF Lucia reporter activity” value was 0.0824 with RAW-Dual [3] (setting [5]) and 0.0631 in the assay on RAW-Dual [3] (agonist: LPS (TLR4) 0.1 ug/mL).

As to `Cc1cc(Nc2ncc(Cl)c(Nc3ccccc3S(=O)(=O)C(C)C)n2)c(OC(C)C)cc1C1CCNCC1`, in the assay on RAW-Dual [1] (setting [6]), the “IRF Lucia reporter activity” value came out at 0.285.

As for `CC(C)=CCC/C(C)=C\CO` (library stock concentration (final ~1000-fold dilution): 10 mM), the “IRF Lucia reporter activity” value worked out at 1.28 in the assay on RAW-Dual [2] (setting [5]) and 1.15 in the assay on RAW-Dual [2] (agonist: LPS (TLR4) 0.1 ug/mL).

With `COCCCOc1ccnc(C[S+]([O-])c2nc3ccccc3[nH]2)c1C` (stereo not given) (library stock concentration (final ~1000-fold dilution): 10 mM), the “IRF Lucia reporter activity” value in the assay on RAW-Dual [2] (setting [5]) is 1.01; in the assay with RAW-Dual [2] (agonist: LPS (TLR4) 0.1 ug/mL), 0.827.

As to `COCCCOc1ccnc(C[S+]([O-])c2nc3ccccc3[nH]2)c1C` (stereo not given), in the assay with RAW-Dual [1] (setting [4]), the “IRF Lucia reporter activity” value is 1.01.

For the compound `CC(Cc1ccc(O)c(O)c1)C(C)Cc1ccc(O)c(O)c1` (stereo not given), the “IRF Lucia reporter activity” value in the assay with RAW-Dual [1] (setting [6]) is 0.108.

As to `CC(Cc1ccc(O)c(O)c1)C(C)Cc1ccc(O)c(O)c1` (stereo not given) (library stock concentration (final ~1000-fold dilution): 10 mM), the “IRF Lucia reporter activity” value stood at 0.0204 in the assay on RAW-Dual [3] (setting [5]) and 0.0871 with RAW-Dual [3] (agonist: LPS (TLR4) 0.1 ug/mL).

Turning to `Nc1ncc(-c2ccnc(Nc3ccncc3)n2)c(CC2CC2)n1` (library stock concentration (final ~1000-fold dilution): 10 mM), the “IRF Lucia reporter activity” value in the assay with RAW-Dual [3] (setting [5]) came out at 0.336; in the assay with RAW-Dual [3] (agonist: LPS (TLR4) 0.1 ug/mL), 3.92.

As to `C=C1CC23CCC4C(C)(C(=O)O)CCCC4(C)C2CCC1C3` (stereo not given) (library stock concentration (final ~1000-fold dilution): 10 mM), the “IRF Lucia reporter activity” value in the assay on RAW-Dual [2] (setting [5]) is 1.11; in the assay on RAW-Dual [2] (agonist: LPS (TLR4) 0.1 ug/mL) it was 0.862.

For `O=C(O)CCC1CCC(c2cc(F)ccc2F)(S(=O)(=O)c2ccc(Cl)cc2)CC1` (stereo not given) (library stock concentration (final ~1000-fold dilution): 10 mM), the “IRF Lucia reporter activity” value with RAW-Dual [2] (setting [5]) and in the assay with RAW-Dual [2] (agonist: LPS (TLR4) 0.1 ug/mL) was 1.22 in each case.

For `O=C(O)CCC1CCC(c2cc(F)ccc2F)(S(=O)(=O)c2ccc(Cl)cc2)CC1` (stereo not given), in the assay on RAW-Dual [1] (setting [4]), the “IRF Lucia reporter activity” value came out at 1.25.

Consider `CC(C)CCn1c(CN2CCN(C(=O)C3CC3)CC2)nc2c1c(=O)n(C)c(=O)n2C` (library stock concentration (final ~1000-fold dilution): 10 mM), for which the “IRF Lucia reporter activity” value came to 0.987 in the assay with RAW-Dual [2] (setting [5]) and 0.989 in the assay on RAW-Dual [2] (agonist: LPS (TLR4) 0.1 ug/mL).
